According to PubChem BioAssay AID493208 (National Center for Advancing Translational Sciences (NCATS), 2011):
Among all 44,000 compounds or so, about 340 (0.77%) were called active. About 5% were inconclusive and are not listed. Calls follow the shape of the dose curve; as a rule, active = well fitted inhibition curve with a large enough effect; inconclusive = small, poorly fitted or top-dose-only effect; inactive = flat fitted curve, though single readings scatter. The list shows a part of the results.

Assay: Acumen qHTS Assay for Inhibitors of the mTORC1 Signaling Pathway in MEF (Tsc2-/-, p53-/-) Cells: Sytravon;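 also: plate controls were DMSO for no effect and rapamycin for full effect; nearly all actives have a fitted effect of over 50% in size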
Settings: phospho-rpS6 immunofluorescence/PI, 24 h; series mostly up to 38.3 µM; activity change, negative = inhibition: at the top concentration
In short: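 Tsc2-/-, p53-/- MEFs (empty-vector stable line) in DMEM + 10% FBS were treated with compounds 24 h at 37 degree Celsius, fixed, and immunostained for phospho-rpS6 (Alexa-488) with propidium iodide counterstain. Laser-scanning cytometry gave % positive cells, normalized against 7.5 nM rapamycin and DMSO.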

Activity change, negative = inhibition, inactive:
Cc1ccc(CNC(=O)CN2CCN(Cc3ccc(F)cc3Cl)C2=O)cc1 -0.502%
CCc1ccc(Nc2sc(C(=O)c3ccc(F)cc3)c(N)c2S(=O)(=O)c2ccccc2)cc1 -6.77%
COc1ccc(OC)c(NC(=O)CCNS(=O)(=O)c2ccc3c(c2)oc(=O)n3C)c1 -5.18%
Cc1ccc(-c2nc(CS(=O)CC(=O)NCCc3ccc(Cl)cc3)c(C)o2)cc1 (stereo unspecified) -7.64%
CC(CNC(=O)CCCn1c(=O)c2cccn2c2ccc(F)cc21)c1ccccc1 (stereo unspecified) 4.92%
Cc1cccc(C(=O)NNc2ncnc3c2cnn3-c2ccc(C)c(Cl)c2)c1 -1%
COc1cc(NC(=O)C2Cc3ccccc3N2C(=O)c2ccccc2)cc(OC)c1 (stereo unspecified) 13.2%
CCOc1ccc(-n2nc(CO)c(C(=O)NCC(C)O)n2)cc1 (stereo unspecified) 0.814%
COc1ccc(OCCn2nnc3sc4c(c3c2=O)CCCC4)cc1 -3.52%
COc1ccc(N2CCN(c3ncnc4c3nnn4C)CC2)cc1 -1.17%
CCOC(=O)c1c(C)[nH]c(C)c1S(=O)(=O)NCC(=O)NCc1ccccc1C 4.28%
CCOc1ccccc1CNS(=O)(=O)c1cc(-c2onc(C)c2C)ccc1OC -4.03%
CCOC(=O)C1CCN(c2ncnc3c2c(-c2ccccc2)cn3-c2ccc(Cl)cc2)CC1 6.25%
CCC(=O)N1c2ccccc2CC1C(=O)N1CCN(c2ccccc2F)CC1 (stereo unspecified) 0%
Cc1ccc(NC(=O)Cn2c(=O)n(CCCCC(=O)NCc3ccc4c(c3)OCO4)c(=O)c3ccccc32)cc1 1.16%
N#Cc1c(C(F)(F)F)cc(-c2cccs2)nc1SCc1ccccc1F 3.36%
Clc1ccccc1CSc1nc(NCCc2ccccc2)c2ccccc2n1 -3.46%
O=C(CSc1ncc2c(n1)-c1ccccc1N(Cc1ccc(Cl)cc1)S2(=O)=O)c1ccccc1 -12%
CCOc1ccccc1Nc1sc(C(=O)c2ccc(Cl)cc2)c(N)c1S(=O)(=O)c1ccccc1 1.2%
Cc1cccc(N2CCN(C(=O)c3ccc4c(c3)N(Cc3cccc(Cl)c3)C(=O)c3ccccc3S4(=O)=O)CC2)c1C 2.15%
CCN(Cc1ccccc1)C(=O)Cn1ncc2c(=O)oc3ccc(C)cc3c21 14.6%
CCOc1ccc(NC(=O)CCc2nnc3n(C)c(=O)c4sccc4n23)cc1 4.62%
CCC(C(=O)NC1CCCCC1)n1c(SCc2cccc(F)c2)nc2ccncc21 (stereo unspecified) -1.23%
COc1ccccc1NC(=O)Cn1ccn(-c2cc(C)cc(C)c2)c(=O)c1=O -0.974%
CC(CNC(=O)C1CCN(C(=O)c2cc3sccc3n2C)CC1)c1ccccc1 (stereo unspecified) -13.5%
Cc1ccc(Cl)cc1Nc1nn2c(=O)c3ccc(C(=O)NC(C)c4ccccc4)cc3nc2s1 (stereo unspecified) -11.6%
Cc1ccc(Cl)cc1N1CCN(C(=O)CCS(=O)(=O)c2ccc3c(c2)oc(=O)n3C)CC1 -8.17%
CCOc1cccc(NC(=O)C2CC(=O)N(C)C(=Nc3ccc(OC)cc3)S2)c1 (stereo unspecified) -8.14%
Cn1nc(C(=O)NCc2ccccc2)c2c1-c1ccccc1S(=O)(=O)C2 6.2%
COc1ccccc1CNC(=O)CCc1c(C)nn(-c2ccc(N3CCCCC3)nn2)c1C -6.8%
CCOc1ccc(-n2c(=O)c3c(C)c(C(=O)N(C)C)sc3n(Cc3cc(C)ccc3C)c2=O)cc1 0.652%
Cc1ccc(S(=O)(=O)C(CNC(=O)C(=O)NCc2ccc(Cl)cc2)c2ccco2)cc1 (stereo unspecified) -13.8%
CN(C(=O)CSc1nc2ccccc2n1Cc1ccccc1C#N)c1ccccc1 5.33%
O=c1c2sc3ccccc3c2n(Cc2ccc(F)cc2Cl)c(=O)n1Cc1ccccc1 0.393%
CCOc1ccccc1CNC(=O)c1oc2ccc3c(c2c1C)C(=O)CC(C)(C)O3 0.514%
Cc1ccc2oc(-c3ccc(C)c(NC(=O)c4ccc(-c5ccccc5[N+](=O)[O-])o4)c3)nc2c1 -0.971%
CCOc1ccc(S(=O)(=O)N(CC(=O)Nc2ccc3c(c2)OCO3)c2ccc(C)cc2)cc1 10.7%
COC(=O)c1ccc2nc(C)cc(Nc3cccc(Cl)c3C)c2c1 -19.5%
COCC(=O)Nc1c(C(=O)Nc2ccc(C)cc2)oc2ccccc12 2.23%
Cc1ccc(NC(c2nnc(-c3ccccc3)o2)c2ccccc2F)c(Cl)c1 (stereo unspecified) -11.7%
CCN(CC)S(=O)(=O)c1ccc(N2CCCCS2(=O)=O)cc1 0%
Cc1ccc(CNC(=O)CN2C(=O)CCc3cc(S(=O)(=O)N4CCCCC4)ccc32)cc1 0%
CCn1cc(S(=O)(=O)c2ccc(Cl)cc2)c(=O)c2cc(F)c(N3CCOCC3)cc21 -7.03%
COc1cc(CN(C(=O)c2ccc(Cl)cc2)C2CCS(=O)(=O)C2)cc(OC)c1OC (stereo unspecified) 4.75%
CCOC(=O)c1ccc(-c2ccc(/C=C(\C#N)C(=O)Nc3ccc(C)cc3)o2)cc1 5.44%
COc1cccc(C(=O)n2nc(-c3cccnc3)nc2NCc2ccc(F)cc2)c1 8.24%
CCN(CC)CCSc1nnc2c3cc(F)ccc3n(CC)c2n1 -19.9%
Cc1ccc(CCNC(=O)CCn2nc(-c3ccc(C)cc3)ccc2=O)cc1 -19.5%
COC(=O)c1ccc2c(=O)n(CCCCCC(=O)N3CCN(c4ccc(Cl)cc4)CC3)c(=O)[nH]c2c1 -1.55%
COc1ccccc1CNC(=O)Cn1c(=O)nc(-c2ccccc2)c2ccccc21 0%
CCCSc1nnc2c(n1)OC(c1cccs1)Nc1ccc(Br)cc1-2 (stereo unspecified) -1.35%
COC(=O)c1ccc(NC(=O)CN(Cc2ccccc2)S(=O)(=O)c2ccc(Cl)cc2)cc1 2.22%
Cc1c(Cl)cccc1NC(=O)Nc1ccc2snnc2c1 0.128%
Oc1c(C(c2ccccc2F)N2CCCC2)sc2nc(-c3ccco3)nn12 (stereo unspecified) -0.327%
O=C(NCCc1ccccc1)c1ccc(CS(=O)(=O)c2ccc(Cl)cc2)o1 -7.31%
CCCOc1ccccc1C1C(C(=O)Nc2ccccc2)=C(C)Nc2nnnn21 (stereo unspecified) 5.18%
CCc1ccc(N(CC)C(=O)Cn2cnc3sc(C)c(S(=O)(=O)N4CCN(c5ncccn5)CC4)c3c2=O)cc1 5.33%
Cc1cccc(S(=O)(=O)c2cn(C)c3cc(N4CCC(C)CC4)c(F)cc3c2=O)c1 -4.61%
CCC(=O)N1c2ccc(S(=O)(=O)CCC(=O)NCc3cccc(OC)c3)cc2CC1C (stereo unspecified) -1.12%
CC(=O)Nc1ccc(NC(=O)c2cc(-c3ccc4c(c3)OCCO4)on2)cc1 -7.33%
Cc1cccc(CSc2ccc(-c3cccs3)nn2)c1 -7.09%
O=C(NCc1ccccc1Cl)c1nnc(Cc2ccc(Cl)cc2)o1 4.48%
COc1ccc(-c2noc(CSc3nnc(C)n3-c3ccc(C)c(C)c3)n2)c(OC)c1 8.03%
COc1ccc(-c2nc(SCC(=O)NCCc3ccccc3)n[nH]2)cc1 2.81%
Cc1ccc2onc(CC(=O)N3CCN(c4ccccc4)CC3)c2c1 -6.97%
CCOc1ccc(NC(=O)C(C)n2c(=O)cc(C)c3c(C)nn(-c4ccccc4)c32)cc1 (stereo unspecified) -0.682%
CCc1ccc(OCC(=O)Nc2ccc3c(c2)c2ccccc2n3CC)c(Br)c1 0.0252%
N#C/C(=C\c1cc(Br)c(O)c(Br)c1)c1nc2ccccc2c(=O)[nH]1 2.78%
CCc1ccc(NC(=O)CSc2ncc(S(=O)(=O)c3cc(C)ccc3C)c(=O)[nH]2)cc1 -0.0149%
COc1ccc(CC(=O)NC2CC(=O)N(c3ccc(C)c(C)c3)C2)cc1OC (stereo unspecified) 4.13%
O=C(Cn1c(=O)oc2cc(S(=O)(=O)N3CCCCC3)ccc21)NCc1ccc(F)cc1 -1.58%
CC1CCN(c2nc3ccc(C(=O)NCCc4ccc(S(N)(=O)=O)cc4)cc3s2)CC1 3.65%
Cc1cccc2sc(N(Cc3cccnc3)C(=O)C3COc4ccccc4O3)nc12 (stereo unspecified) 0.929%
COc1ccc(-c2nc(Cn3c(SCc4ccccc4F)nc4cccnc43)c(C)o2)cc1 0%
Cc1ccc(CNC(=O)CN2C(=O)C3(SCC(=O)N3c3ccc(F)c(F)c3)c3ccccc32)cc1 (stereo unspecified) 8.72%
CCOC(=O)C(Cc1ccccc1)NC(=O)CCc1c(C)nc2c(c(C)nn2-c2ccc(C)c(C)c2)c1C (stereo unspecified) -9.49%
COC(=O)c1ccccc1NC(=O)C1CCCN(c2nnc(C)c3c(C)n(-c4ccccc4)nc23)C1 (stereo unspecified) -6.3%
COC(=O)c1c(NC(=O)c2ccc(S(=O)(=O)N(C)C3CCCCC3)cc2)sc2c1CCN(C)C2 -5.46%
O=C(CN1C(=O)CCc2cc(S(=O)(=O)N3CCCCC3)ccc21)NCc1ccc(Cl)cc1 13.2%
Cc1ccc(C)c(N2CCN(C(=O)CS(=O)(=O)c3cccc4nsnc34)CC2)c1 -6.06%
COc1ccc(OCC(=O)NCC(c2ccc(OC)cc2)N2CCOCC2)cc1 (stereo unspecified) -0.986%
Cc1cc(NC(=O)c2cnc3c(-c4ccccc4)c(C)nn3c2C)ccc1Br -3.42%
Cc1cc(NC(=O)C(C)(C)C)cc(-c2nc3ncccc3o2)c1O -5.42%
Cc1cccc(N2CCN(C(=O)CN3C(=O)COc4ccc(S(=O)(=O)N5CCCC5)cc43)CC2C)c1 (stereo unspecified) -4.62%
CCn1c(SCC(=O)c2ccccc2)nnc1-c1cccc(Cl)c1 0.247%
CCc1c(CN2CCN(c3ccccc3F)CC2)csc1C -5.97%
Cc1ccc(/C=C/c2onc(C)c2S(=O)(=O)N2CCC(C(=O)NCc3ccc(OC(C)C)cc3)CC2)cc1 0.654%
Cc1ccc(CNC(=O)c2ccccc2NC(=O)c2nsc3ccccc23)cc1 2.45%
COc1cccc(CNCCSc2nnnn2-c2ccccc2)c1OC -1.38%
COc1ccc(-c2c(C)c3ccc(O)c(CN4CCCC4)c3oc2=O)cc1 -2.31%
Cc1nnc(C)n1-c1ccc(C(=O)Nc2cccc(Br)c2)cc1 -1.38%
Cc1c(Cl)cccc1NC(=O)CCCn1nc(C)c2sc3ccccc3c2c1=O -4.97%
COc1cccc(N2CCN(c3c4c(nc5nncn35)CCC4)CC2)c1 -6.87%
Cc1cccc(Cn2cc3c(=O)n(CC(=O)Nc4c(C)cccc4C)nc-3c3cc(F)ccc32)c1 0.506%
CC(C)Sc1nc2sc3c(c2c(=O)n1Cc1ccccc1)CCCC3 2.11%
COC(=O)c1cc2oc3ccccc3c2n1Cc1nc(-c2ccccc2Cl)oc1C 1.57%
